Out of some 310,000 compounds screened, about 14,000 (4.5%) showed an effect of 50% or more. The effect is printed as a negative number. The list shows a part of the results.
What follows are compounds tested against human ether-à-go-go-related gene (hERG) potassium channel (human, UniProt Q12809) (assay: primary screen, population patch clamp on CHO cells stably expressing hERG).
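Also: peak tail current of the secondary pulse compared with the same well before compound.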

Sequence of human ether-à-go-go-related gene (hERG) potassium channel (Q12809 whole entry, looked up): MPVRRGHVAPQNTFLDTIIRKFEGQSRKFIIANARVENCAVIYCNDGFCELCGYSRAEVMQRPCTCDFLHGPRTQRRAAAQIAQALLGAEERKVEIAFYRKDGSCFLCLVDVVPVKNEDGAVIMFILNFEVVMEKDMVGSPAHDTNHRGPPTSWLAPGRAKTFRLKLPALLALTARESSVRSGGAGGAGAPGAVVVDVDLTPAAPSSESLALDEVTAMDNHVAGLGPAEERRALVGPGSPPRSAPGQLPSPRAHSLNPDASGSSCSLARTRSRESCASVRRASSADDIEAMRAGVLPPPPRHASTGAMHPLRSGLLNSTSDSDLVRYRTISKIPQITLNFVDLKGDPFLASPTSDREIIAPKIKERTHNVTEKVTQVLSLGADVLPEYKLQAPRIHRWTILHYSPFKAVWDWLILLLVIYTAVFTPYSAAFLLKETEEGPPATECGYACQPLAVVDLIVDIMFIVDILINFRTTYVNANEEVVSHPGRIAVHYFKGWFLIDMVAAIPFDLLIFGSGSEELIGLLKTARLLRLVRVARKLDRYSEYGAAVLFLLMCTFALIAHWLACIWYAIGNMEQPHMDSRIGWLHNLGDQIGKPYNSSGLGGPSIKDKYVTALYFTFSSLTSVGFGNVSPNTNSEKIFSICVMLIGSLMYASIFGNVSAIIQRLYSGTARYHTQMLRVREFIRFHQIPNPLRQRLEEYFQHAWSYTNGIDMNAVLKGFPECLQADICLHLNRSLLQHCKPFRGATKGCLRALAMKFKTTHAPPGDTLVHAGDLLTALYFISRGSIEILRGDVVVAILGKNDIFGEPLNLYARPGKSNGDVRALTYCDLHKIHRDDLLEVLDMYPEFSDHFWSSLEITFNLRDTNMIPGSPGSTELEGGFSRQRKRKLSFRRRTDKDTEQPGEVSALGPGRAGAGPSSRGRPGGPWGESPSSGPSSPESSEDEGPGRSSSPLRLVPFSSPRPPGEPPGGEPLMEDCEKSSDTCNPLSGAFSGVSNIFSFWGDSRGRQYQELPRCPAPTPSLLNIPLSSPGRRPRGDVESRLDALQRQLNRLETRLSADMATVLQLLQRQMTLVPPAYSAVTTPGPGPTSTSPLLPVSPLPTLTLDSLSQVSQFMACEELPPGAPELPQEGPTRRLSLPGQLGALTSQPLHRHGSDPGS

First: CCc1cc(=O)oc2cc(C)cc(OCC(=O)NC3CCN(Cc4ccccc4)CC3)c12
Second: O=C(COC(=O)c1cc(=O)c2ccccc2o1)NC1CCCCC1
The “hERG current change (%, negative = inhibition) at 10uM” value of the first is lower: -36% for the first, 17.9% for the second.

Compared with `Cc1ccccc1NC(=O)N1C2CCCC1CC(NC(=O)C1CC1)C2` (centres unmarked), `CC1CCN(c2c(NCC3CCC(C(=O)NCCc4ccccc4)CC3)c(=O)c2=O)CC1` (centres unmarked) is lower in “hERG current change (%, negative = inhibition) at 10uM” value: 10% for the first, 1.51% for the second.

Going from `O=S(=O)(NCC(c1cccnc1)N1CCN(Cc2ccccc2)CC1)c1ccc(Cl)cc1` (centres unmarked) to `O=C(CCNS(=O)(=O)c1ccc(Br)cc1)NCCc1ccccc1`, the “hERG current change (%, negative = inhibition) at 10uM” value rises from -78.3% to -15.9%.

First: COc1ccc(/C=C/C(=O)Oc2cc(O)cc(O)c2)cc1
Second: COc1ccc(C(=O)N/N=C/c2ccc(SC)cc2)cc1
The “hERG current change (%, negative = inhibition) at 10uM” value of the first is higher: 15.2% for the first, 3.02% for the second.

First: CCCOc1ccc(C2C(C(=O)c3ccc(C)o3)=C(O)C(=O)N2Cc2cccnc2)cc1 (centres unmarked)
Second: CCOc1ccc(/C(O)=C2/C(=O)C(=O)N(c3ccccn3)C2c2ccc(F)cc2)c(C)c1 (centres unmarked)
The “hERG current change (%, negative = inhibition) at 10uM” value of the first is higher: 12.9% for the first, 11.8% for the second.

Compared with `CCCCOc1ccc(C(=O)NCC(=O)NCC(c2cccs2)N2CCOCC2)cc1` (centres unmarked), `CC(C(=O)NCCCN1CCOCC1)n1cccc1C(=O)c1ccccc1` (centres unmarked) is higher in “hERG current change (%, negative = inhibition) at 10uM” value: -22.6% for the first, 1.16% for the second.

Going from `CCOC(=O)C1=C(C)N=c2s/c(=C\c3ccc(O)c([N+](=O)[O-])c3)c(=O)n2C1c1ccccc1OC` (centres unmarked) to `Cc1cc(C)c(S(=O)(=O)Nc2c(C)n(C)n(-c3ccccc3)c2=O)cc1[N+](=O)[O-]`, the “hERG current change (%, negative = inhibition) at 10uM” value rises from -61.7% to 9.1%.

Going from `Cc1nc(-c2ccc(S(=O)(=O)Oc3ccc(Cl)cc3Cl)s2)cs1` to `Cc1cc(Cl)n2nc(C)c(-c3ccc(Cl)cc3)c2n1`, the “hERG current change (%, negative = inhibition) at 10uM” value rises from 9.25% to 21.7%.

First: CC(=O)c1ccc(OCCCCCCCOc2ccc(C(C)=O)cc2)cc1
Second: CCN(CC)c1ccc(NC(=O)COc2ccc(C#N)cc2)cc1S(=O)(=O)Nc1ccc(OC)cc1
The “hERG current change (%, negative = inhibition) at 10uM” value of the first is higher: 26.3% for the first, 9.73% for the second.

Going from `CCn1nnc(-c2ccccc2NC(=O)c2cnccn2)n1` to `Cc1ccccc1NC(=O)NCc1ccco1`, the “hERG current change (%, negative = inhibition) at 10uM” value rises from -0.711% to 8.5%.

Going from `CCOc1ccc(CNC(=O)CCn2c(=O)oc3ccccc32)cc1OC` to `CC(Sc1nc(=O)cc(N)n1CCc1ccccc1)C(=O)NCc1ccccc1` (centres unmarked), the “hERG current change (%, negative = inhibition) at 10uM” value rises from -7.47% to 3.18%.

First: O=C(CSc1nnc(-c2ccc(F)cc2)o1)Nc1ccc(S(=O)(=O)N2CCCC2)cc1
Second: COc1ccc(CCC(=O)N2CCN(S(=O)(=O)c3ccc(OC)cc3)CC2)cc1
The “hERG current change (%, negative = inhibition) at 10uM” value of the first is higher: -2.73% for the first, -8.45% for the second.

Going from `CCOc1ccc(NCc2nnc(SCC(=O)Nc3cc(C)on3)n2-c2ccc(OC)cc2)cc1` to `COc1ccc(-n2c(C)cc(/C=C3/SC(=S)N(C)C3=O)c2C)cc1`, the “hERG current change (%, negative = inhibition) at 10uM” value rises from -4.02% to 20.7%.

Going from `CCn1c(=O)c2c(nc3n2CCCN3Cc2ccccc2)n(C)c1=O` to `Cc1nc(=O)c(-c2ccccc2)c(C)n1CC1CCCO1` (centres unmarked), the “hERG current change (%, negative = inhibition) at 10uM” value rises from -18.2% to 3.28%.

First: CN1CCN(c2c(F)cc([N+](=O)[O-])c(N)c2Br)CC1
Second: CN1CCN(C(=O)COc2ccc3ccccc3c2)CC1
The “hERG current change (%, negative = inhibition) at 10uM” value of the first is lower: -45.3% for the first, -3.47% for the second.

First: COc1ccc2c(c1OC)C(=O)N1N=C(c3ccc(O)cc3)CC21 (centres unmarked)
Second: COc1ccc(-c2noc(-c3ccc(Cl)cc3[N+](=O)[O-])n2)cc1OC
The “hERG current change (%, negative = inhibition) at 10uM” value of the first is higher: -1.59% for the first, -7.48% for the second.

Going from `CCc1ccc(C(C)NC(=O)c2ccncc2)cc1` (centres unmarked) to `COc1ccc(C(CC(=O)O)NC(=O)c2ccccc2[N+](=O)[O-])cc1` (centres unmarked), the “hERG current change (%, negative = inhibition) at 10uM” value rises from 3.72% to 17.9%.

Going from `Cc1ccc(N2C(=O)C3CC(c4ccccc4)=C4C5C=CC(C6C(=O)N(c7ccc(C)cc7)C(=O)C56)C4C3C2=O)cc1` (centres unmarked) to `COc1ccc(-c2csc(NC(=O)c3ccccc3NS(=O)(=O)c3ccc(C)cc3)n2)cc1`, the “hERG current change (%, negative = inhibition) at 10uM” value rises from -73.6% to -6.26%.

Going from `Cc1cc(C)c(Cc2c(C)nc3c(C(=O)NCc4ccco4)cnn3c2C)c(C)c1` to `O=C(N/N=C/c1ccco1)c1cc(-c2cccc(Br)c2)nc2ccccc12`, the “hERG current change (%, negative = inhibition) at 10uM” value falls from 9.22% to -3.76%.

Compared with `Cc1cc(C)c(C2=CSC3=NS(=O)(=O)CCN23)c(C)c1`, `COCC(C)n1c(C)cc(C(=O)CN2c3cccc4cccc(c34)S2(=O)=O)c1C` (centres unmarked) is higher in “hERG current change (%, negative = inhibition) at 10uM” value: 3.29% for the first, 7.03% for the second.

Going from `O=C(O)c1ccc(N2CCCCS2(=O)=O)cc1` to `O=C1CC(N2CCOCC2)=NN1c1ccc([N+](=O)[O-])cc1`, the “hERG current change (%, negative = inhibition) at 10uM” value falls from 23% to -8.54%.

Compared with `CSc1nc2[nH]c3c(c2c2nnnn12)CCCC3`, `O=C(Cn1nnc(-c2cccc(C(F)(F)F)c2)n1)NC1CCCC1` is lower in “hERG current change (%, negative = inhibition) at 10uM” value: 9.92% for the first, 9.02% for the second.

Going from `COCCN(C(=O)Cc1cccs1)c1nnc(-c2ccncc2)s1` to `Nc1cc(C(=O)OCC(=O)NNC(=O)c2cccs2)ccc1Cl`, the “hERG current change (%, negative = inhibition) at 10uM” value rises from -4.09% to -1.27%.

Going from `Cc1cccn2c(CN(C)CC3CCCCO3)c(C(=O)N3CCCCC3)nc12` (centres unmarked) to `Cc1ccc2c(C(=O)CN3CCN(C4CCCCC4)CC3)c(C)[nH]c2c1`, the “hERG current change (%, negative = inhibition) at 10uM” value falls from 20.9% to -55.1%.

First: CCOC(=O)c1ccc(NC(=O)C(=O)NCc2ccccn2)cc1
Second: CCOC(=O)c1ccc(/[N+]([O-])=C/c2ccccc2)cc1
The “hERG current change (%, negative = inhibition) at 10uM” value of the first is higher: 8.91% for the first, 0.217% for the second.

Going from `CC(=O)C(Sc1ccc2nnc(-c3ccc(C)cc3)n2n1)C(C)=O` to `Cc1ccc(-c2nnc(N)o2)cc1`, the “hERG current change (%, negative = inhibition) at 10uM” value rises from -1.98% to 9.43%.

Going from `CCCCNC(=S)N(CCCN(C)C)Cc1cc2cc3c(cc2[nH]c1=O)OCO3` to `CSc1ccc(CNCc2ccc3c(c2)OCO3)cc1.O=C(O)C(=O)O`, the “hERG current change (%, negative = inhibition) at 10uM” value falls from -20.2% to -46.4%.

First: NC(=O)CC(NC(=O)Cc1cccc2ccccc12)c1ccc(N2CCN(c3ccc(F)cc3)CC2)c([N+](=O)[O-])c1 (centres unmarked)
Second: COc1ccc(S(=O)(=O)Nc2ccccc2N2CCOCC2)cc1[N+](=O)[O-]
The “hERG current change (%, negative = inhibition) at 10uM” value of the first is higher: -6.46% for the first, -13.7% for the second.

First: COc1ccc(OC)c(Nc2cc(-c3ccccc3)nc(N)n2)c1
Second: Clc1nc2ccccc2nc1-c1ccccc1
The “hERG current change (%, negative = inhibition) at 10uM” value of the first is lower: -55.9% for the first, 20% for the second.

First: CC1(C(=O)O)C=CC2(CCCCC2)N1C(=O)c1ccccc1 (centres unmarked)
Second: O=C(Nc1ccc(Cl)cc1)C(Cl)C(=O)c1ccccc1 (centres unmarked)
The “hERG current change (%, negative = inhibition) at 10uM” value of the first is higher: 7.33% for the first, -3.81% for the second.

Compared with `CCC(=O)Nc1cc(=O)[nH]c2nc(-c3ccc(Cl)cc3)nn12`, `CC(C)(C)OC(=O)N[C@@H](Cc1ccccc1)c1nnc(SCC(=O)c2ccc(Cl)cc2)o1` is lower in “hERG current change (%, negative = inhibition) at 10uM” value: 27.2% for the first, -4.25% for the second.

First: COc1ccc(-c2c(C#Cc3ccsc3)c3ccccc3n2C)cc1
Second: COc1ccc(-c2nnc(SCc3cccc(C#N)c3)o2)cc1
The “hERG current change (%, negative = inhibition) at 10uM” value of the first is lower: -6.31% for the first, -0.873% for the second.

First: O=C(Nc1nccs1)C1CC(=O)N(CCc2ccc(F)cc2)C1 (centres unmarked)
Second: COc1ccc(CCN(C(=S)Nc2ccccc2)C2CC(=O)N(c3ccccc3)C2=O)cc1 (centres unmarked)
The “hERG current change (%, negative = inhibition) at 10uM” value of the first is lower: -0.348% for the first, 10.9% for the second.

First: O=C(NCCOc1ccccc1)c1ccccc1SCC(=O)N1CCCC1
Second: Cc1oc(C(C)(C)C)cc1C(=O)N1CCN(C(c2ccccc2)c2ccccc2)CC1
The “hERG current change (%, negative = inhibition) at 10uM” value of the first is higher: 14.9% for the first, 5.22% for the second.

Going from `CCOC(=O)C(=O)c1cn(C2OCC(OC(C)=O)C(OC(C)=O)C2OC(C)=O)c2ccccc12` (centres unmarked) to `CCOc1ccccc1C(=O)N(Cc1ccc(C)o1)C1CCS(=O)(=O)C1` (centres unmarked), the “hERG current change (%, negative = inhibition) at 10uM” value falls from 10.3% to 3.34%.

First: COc1ccc(CN2C(=O)c3cccnc3C2=O)cc1S(=O)(=O)N(C)c1ccc(C)cc1
Second: Cc1ccc(CNS(=O)(=O)c2cccc3nsnc23)cc1
The “hERG current change (%, negative = inhibition) at 10uM” value of the first is higher: 16.1% for the first, -24.3% for the second.

First: O=C(NC1CCCC1)C1CC(=O)N(C2CCCCCCC2)C1 (centres unmarked)
Second: CN(C)S(=O)(=O)N1CCC(Oc2ccc(C(=O)N3C[C@@H]4CCC[C@H]3C4)cc2)CC1
The “hERG current change (%, negative = inhibition) at 10uM” value of the first is lower: 0.564% for the first, 4.6% for the second.

Compared with `Fc1cccc(/C=N/N=C/c2cccc(F)c2)c1.O`, `C=C(C)CC(c1ccccc1)N(C(C)=O)c1ccco1` (centres unmarked) is lower in “hERG current change (%, negative = inhibition) at 10uM” value: 52% for the first, 0.026% for the second.

Going from `Cc1c(NC(=O)C2CCCN2S(=O)(=O)c2ccccc2)c(=O)n(-c2ccccc2)n1C` (centres unmarked) to `CCOC(=O)N1CCN(C(=O)COc2ccc(S(=O)(=O)NCC(C)C)cc2C)CC1`, the “hERG current change (%, negative = inhibition) at 10uM” value falls from 13.8% to -11.7%.

First: CC12CC3(C)CC(C)(C1)CC(C(=O)Nc1nn[nH]n1)(C2)C3
Second: CC(C)(C)NC(=O)NCc1cccnc1
The “hERG current change (%, negative = inhibition) at 10uM” value of the first is lower: 2.11% for the first, 16.6% for the second.

First: CN(C)c1nc(C(=O)Nc2ccccc2)nc(N(C)C)n1
Second: CCN(CC)C(=O)CSc1nnc2nnc3cc(OC)ccc3n12
The “hERG current change (%, negative = inhibition) at 10uM” value of the first is higher: 8.15% for the first, 2.88% for the second.

Compared with `COc1cccc(CN2CCN(C3CSCCSC3)CC2CCO)c1` (centres unmarked), `COc1cc(/C=N/NC(=O)Cc2csc(N3CCOCC3)n2)cc(OC)c1O` is higher in “hERG current change (%, negative = inhibition) at 10uM” value: -13% for the first, 30.1% for the second.

Compared with `COc1cc(C2c3sc(=O)[nH]c3SC3C4CCC(C4)C23)ccc1O` (centres unmarked), `CCN(CC)C(=O)c1cc(C(C)(C)C)c(O)c(C(C)(C)C)c1` is lower in “hERG current change (%, negative = inhibition) at 10uM” value: -3.55% for the first, -34.4% for the second.

— paper PMC4336329 (PLoS ONE, 2015)
